# From PubChem BioAssay AID1345082 (National Center for Advancing Translational Sciences (NCATS), 2018)
# Where “and” joins values, the source holds several entries; their conditions need not be identical. Identical values can stand only once. Out of some 94,000 compounds screened, about 4,000 (4.3%) were called active. The shares of active, inactive and inconclusive entries below differ from those in the screen. The call rests on the fitted dose curve; in most records, active means well fitted inhibition curve with a large enough effect; inconclusive means small, poorly fitted or top-dose-only effect; inactive means no such curve, though single readings can be large or run the other way. Where the call is inconclusive, the potency comes from a doubtful curve fit.
# Assay: Cytotoxic Profiling in NIH 3T3 Cell Line of Diverse Libraries Using Quantitative High-Throughput Screening; further: nearly all actives have a fitted effect of over 55% in size
# Conditions: NIH 3T3 viability, CellTiter-Glo ATP luminescence, 48-72 h; series mostly up to 96.7 µM
# Summary of the method: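 Cytotoxicity was measured by CellTiter-Glo ATP luminescence after 48 or 72 h compound exposure at 37 °C. Mouse NIH 3T3 fibroblasts were seeded at 400 cells/well and dosed by 23 nL pin transfer.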
# Potency means the concentration at half of the fitted maximal effect; tags describe the fitted curve by direction and shape.
row,SMILES,Potency
1,Cc1ccccc1NC(=O)C1CCc2nc(N3CCN(C(=O)C(C)C)CC3)sc2C1 (configuration not stated),active: 35.5 µM
2,Cc1noc(C)c1[S+](=O)([O-])N1CCn2c(nnc2-c2ccc(Cl)cc2)C1,inactive
3,Cc1ccc2c(n1)OC(Cn1cccc1)CN(CCC1=CCCCC1)C2=O (configuration not stated),"inconclusive: 44.7 µM [inhibitor, partial curve, poor fit]"
4,COc1ccc(N2CC(c3noc(-c4ccccc4OC)n3)CC2=O)cc1 (configuration not stated),"inconclusive: 44.7 µM [inhibitor, partial curve, poor fit]"
5,O=C(C1CCOCC1)N1CC(CNc2ccccc2)C2(C1)CN(c1ccccc1)C2 (configuration not stated),"inconclusive: 100 µM [inhibitor, partial curve, poor fit]"
6,COc1ccc(N2C(=O)CSC23CCN(C(=O)Nc2ccccc2)CC3)cc1,"inconclusive: 50.1 µM [inhibitor, partial curve, poor fit]"
7,C[C@H](C(=O)N(C)CCC#N)C1CC[C@@]2(C)Cc3sc(NC(=O)c4cccn4C)nc3[C@@H](C)[C@@H]2[C@H]1O (some centres not stated),"inconclusive: 79.4 µM [inhibitor, partial curve, poor fit]"
8,O=C(Nc1cccc(Cl)c1)c1cnc2c(c1)N(C(=O)CCc1ccccc1)CCC2,inactive
9,CNC(=O)[C@H]1C[C@H](Oc2ccccc2)CN1Cc1ccc(OC(C)C)cc1,"inconclusive: 31.6 µM [inhibitor, partial curve]"
10,O=C(c1cccc(F)c1)N1CCC2(CC1)CC(N(Cc1ccc(F)cc1)C1CC1)CCO2 (configuration not stated),"inconclusive: 44.7 µM [inhibitor, partial curve, poor fit]"
11,N#Cc1ccc(CN2CC[C@@H]3C(=O)NCCCCCCN(Cc4ccncc4)[C@@H]3C2)cc1,inactive
12,COc1ccc(C(=O)NC2CCN(c3cc(C(F)(F)F)nc(C)n3)CC2)c(C)c1,"inconclusive: 12.6 µM [inhibitor, full curve, poor fit]"
13,CC(C)(C)CC(=O)N[C@H]1C[C@@H](Cc2cc(COc3ccccc3)on2)C1(C)C,"inconclusive: 56.2 µM [inhibitor, partial curve, poor fit]"
14,COc1ccc(CN2C(=O)CO[C@H](c3ccc(NC(=O)c4ccc(F)cc4)cc3)[C@H]2CO)cc1,"inconclusive: 44.7 µM [inhibitor, partial curve, poor fit]"
15,Cc1ccc(-c2nc(C(=O)N3CCN(c4ccccc4F)CC3)no2)cc1,"inconclusive: 70.8 µM [inhibitor, single point]"
16,Cc1cccc(C(=O)N2CCN(C(=O)c3nnn4c3COC(c3ccccc3)C4)CC2)c1 (configuration not stated),inactive
17,CCn1cc(S(=O)(=O)N[C@@H]2CN(c3ncccn3)C[C@H]2CN(C)C)cn1,inactive
18,Cc1nn(-c2ccccc2)c2c1C(C)N(C1CCCN(C(=O)c3ccccc3F)C1)C2=O (configuration not stated),"inconclusive: 50.1 µM [inhibitor, partial curve, poor fit]"
19,CC(C)(C)CN[C@H]1C[C@@H](Cc2cc(COc3ccccc3)on2)C1(C)C,active: 28.2 µM
20,CC(C)(C)c1ccc(C(=O)NCc2nnc3c(-c4nc(C5CC5)no4)cccn23)cc1,"inconclusive: 50.1 µM [inhibitor, partial curve, poor fit]"
21,CC1(CCCCN2CCOCC2)COc2ccc(C(=O)Nc3cccc(Cl)c3)cc2N1 (configuration not stated),"inconclusive: 44.7 µM [inhibitor, partial curve, poor fit]"

row,SMILES,Potency
1,O=C(C1CCCN1[S+](=O)([O-])c1cccc(C(F)(F)F)c1)N1CCC(c2ccccc2)CC1 (configuration not stated),active: 35.5 µM
2,CNC(=O)CCn1ncc2cc(OC3CCc4cccc(-c5ccnc(C)c5)c43)ccc21 (configuration not stated),"inconclusive: 56.2 µM [inhibitor, partial curve, poor fit]"
3,OC[C@@H]1CNC[C@H]1C1CCN(Cc2ccc(F)c(F)c2)CC1,"inconclusive: 79.4 µM [inhibitor, partial curve, poor fit]"
4,Cc1csc(NC(=O)C2CC(=O)N(c3n[nH]c4cc(Br)ccc34)C2)n1 (configuration not stated),"inconclusive: 50.1 µM [inhibitor, partial curve, poor fit]"
5,COCC1CN(C2CCC2)CC12CCN(C(=O)CCc1ccccc1)CC2 (configuration not stated),"inconclusive: 70.8 µM [inhibitor, single point]"
6,Cc1noc(C)c1C(=O)N1CCCC(N2C(=O)c3c(c(C)nn3-c3ccccc3)C2C)C1 (configuration not stated),"inconclusive: 50.1 µM [inhibitor, partial curve, poor fit]"
7,O=C1N(CCc2ccccc2)c2ccccc2C12CCN(CC1CC1)C2 (configuration not stated),"inconclusive: 89.1 µM [inhibitor, partial curve, poor fit] and inconclusive: 50.1 µM [inhibitor, partial curve, poor fit]"
8,Cc1cc(C(=O)NC2CCCc3c2[nH]c2c(Cl)cccc32)c2c(C)noc2n1 (configuration not stated),"inconclusive: 44.7 µM [inhibitor, partial curve, poor fit]"
9,O=C(C1CC1)N1CCC2(CC1)CC(N(Cc1ccc(F)cc1)C1CC1)CCO2 (configuration not stated),inactive
10,O=C1N(CC2CC2)CCOC12CCN([S+](=O)([O-])c1ccccc1)CC2,"inconclusive: 22.4 µM [inhibitor, full curve, poor fit]"
11,O=C1Cc2c(-c3ccccc3)n[nH]c2CN1CC1CCOCC1,active: 50.1 µM
12,COc1ccc(C(=O)N2CCC3(CC2)c2[nH]c4ccccc4c2CCN3C)c(OC)n1,inactive
13,Cc1ccc(-n2nc3n(c2=O)CCN(C(=O)Nc2ccccc2)C3)cc1,"inconclusive: 79.4 µM [inhibitor, partial curve, poor fit]"
14,CCN1C(=O)C2(CCN(S(=O)(=O)CC)CC2)c2ccccc21,inactive
15,COc1cc(OC)cc(C(=O)NC2CCN(c3cc(-c4cccs4)[nH]n3)C2)c1 (configuration not stated),"inconclusive: 50.1 µM [inhibitor, partial curve, poor fit]"
16,COc1ccc(Nc2cnc3ccc(-c4cccc(CO)c4)nn23)cc1OC,"inconclusive: 56.2 µM [inhibitor, partial curve, poor fit]"
17,CCOC(=O)C[C@@H]1C[C@@H](C(C)C)[C@H](CNS(=O)(=O)c2ccccc2)C=C1C,"inconclusive: 50.1 µM [inhibitor, partial curve, poor fit]"
18,CC(=O)N1CCc2c(n(Cc3cccnc3)n(CCc3ccccc3)c2=O)C1,"inconclusive: 89.1 µM [inhibitor, single point]"
19,COCCN1C(=O)N(CCc2ccccc2)C(=O)C12CCN(C/C=C/c1ccccc1)CC2,"inconclusive: 70.8 µM [inhibitor, partial curve, poor fit]"
20,CC(=O)NC[C@@H]1C=C(C)[C@H](Cc2nc3ccccc3[nH]2)C[C@H]1C(C)C,"inconclusive: 89.1 µM [inhibitor, partial curve]"
21,CC(=O)N1CCC2(CC1)OC(=O)N(Cc1ccccc1)C2(C)c1cccnc1 (configuration not stated),"inconclusive: 100 µM [inhibitor, partial curve, poor fit]"

row,SMILES,Potency
1,COc1ccc(CNC(=O)[C@@H](C)C2CC[C@@]3(C)CC[C@H](NC(=O)C4CC4)[C@@H](C)[C@@H]3[C@H]2O)cc1 (some centres not stated),inactive
2,CNC(=O)[C@@H]1C[C@H](Oc2cccnc2)CN1C(=O)c1cn[nH]c1-c1ccc(OC)cc1,inactive
3,OC[C@@H]1CNC[C@H]1C1CCN(Cc2cccc(Cl)c2)CC1,"inconclusive: 70.8 µM [inhibitor, partial curve, poor fit]"
4,COc1cccc(N2CC(C(=O)N3CCC(C(=O)NCCc4ccc(Cl)cc4)C3)NC2=O)c1 (configuration not stated),inactive
5,Clc1ccc(C2Cn3nnc(-c4noc(COc5ccccc5)n4)c3CO2)cc1 (configuration not stated),inactive
6,O=C1Nc2ccccc2C12CN(Cc1ccc(F)cc1)C2,inactive
7,CN(C)c1ccc(CN2CCC3(CC2)COc2ccccc2C(=O)N3)cc1,active: 22.4 µM
8,Cc1nc(CN2Cc3nc(-c4cccc(C(F)(F)F)c4)ccc3OCC2=O)cs1,active: 79.4 µM
9,N#Cc1cccc(NC(=S)N[C@H]2CO[C@H]3[C@@H]2OC[C@@H]3n2cc(-c3ccccn3)nn2)c1,"inconclusive: 35.5 µM [inhibitor, partial curve, poor fit]"
10,O=C1N(Cc2ccccn2)C[C@H]2CN(Cc3cccc(OC(F)(F)F)c3)CCN12,"inconclusive: 50.1 µM [inhibitor, partial curve, poor fit]"
11,COc1ccc(C(=O)Nc2ccc([C@H]3OCC(=O)N(Cc4nccn4C)[C@@H]3CO)cc2)cc1,inactive
12,CC(C)c1noc(-c2cccn3c(CNC(=O)c4ccc(F)cc4Cl)nnc23)n1,inactive
13,O=S(=O)(N[C@H]1CO[C@H]2[C@@H]1OC[C@@H]2Nc1nccc(-c2cccs2)n1)c1cccs1,"inconclusive: 20 µM [inhibitor, full curve, poor fit]"
14,COc1cccc(-c2cc(C(=O)O)cc(S(=O)(=O)N3CCSCC3)c2)c1,"inconclusive: 50.1 µM [inhibitor, partial curve, poor fit]"
15,OCC1(CN2CCCC2)CCN(Cc2cccc(Cn3cccn3)c2)CC1,"inconclusive: 89.1 µM [inhibitor, single point]"
16,O=C1NC(C(=O)N2CCCCC2)Cn2cccc21 (configuration not stated),inactive
17,COc1ccc(C(=O)N2CCCC(CO)CCNC(=O)CC2)cc1 (configuration not stated),inactive
18,O=C1NC(=NC2CCCC2)C2(CCCN(CC3CCCCC3)C2)N1c1cccnc1 (configuration not stated),active: 7.08 µM
19,O=C(c1ccccc1)N1CCN(C(=O)c2nc3cccnc3n(CCc3ccccc3)c2=O)CC1,inactive
20,Cc1ccc(C)c(-n2nc(-c3c(C)nc4scc(CC(=O)NC5CCCCC5)n4c3=O)cc2C)c1,active: 39.8 µM
